# Test results: PubChem BioAssay AID686979 (National Center for Advancing Translational Sciences (NCATS), 2013)
# About 50,000 (12%) of roughly 420,000 compounds were called active. The shares of active, inactive and inconclusive entries below differ from those in the screen. Calls come from the whole dose curve; as a rule, active = well fitted inhibition curve with a large enough effect; inconclusive = small, poorly fitted or top-dose-only effect; inactive = flat fitted curve, though single readings scatter. No potency is given beside an inconclusive call; the fits are too rough.
# Experiment: qHTS for Inhibitors of human tyrosyl-DNA phosphodiesterase 1 (TDP1): qHTS in cells in presence of CPT; note: nearly all actives have a fitted effect of over 55% in size
# Details: chicken DT40 Tdp1-/-;hTDP1 cells + 20 nM CPT, ATP luminescence, 48 h; activity change, negative = growth inhibition: at 46.2 µM (top of the series)
# Summary of the method: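 Chicken DT40 Tdp1-/- cells complemented with human TDP1, 400 cells/well, exposed to compounds plus 20 nM camptothecin for at least 48 h at 37 C; viability read as ATP content by CellTiter-Glo luminescence.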
# % is set by controls: 0 for no effect and ±100 for the full control effect; potency is the fitted concentration of half-maximal effect; tags give direction and shape of the fitted curve.
SMILES,"activity change, negative = growth inhibition",Potency
CC1(C(=O)NS(=O)(=O)c2cccc(Cl)c2)CCN1C(=O)C1CCCCC1 (configuration not stated),inactive: 8.86%,–
O=C(Cc1cccs1)N/N=C/C(Br)=C/c1ccccc1,–,"inconclusive [inhibitor, partial curve, poor fit]"
COC(=O)c1ccc(OS(=O)(=O)c2ccc(NC(C)=O)cc2)cc1,–,active: 11.6 µM
COc1cc(NC(=S)Nc2ccccn2)cc(OC)c1OC,–,"inconclusive [inhibitor, single point]"
CC1CN(CC(=O)NCC2(N3CCOCC3)CCCC2)Cc2cc(Cl)ccc2O1 (configuration not stated),inactive: 4.51% [at 9.04 µM],–
COc1ccc(N2CCN(C(=O)c3cc(N4C(=O)C5C6CCC(C6)C5C4=O)ccc3Cl)CC2)cc1 (configuration not stated),inactive: -20.6%,–
Cc1sc2nc(CN3CCOCC3)nc(N3CCOCC3)c2c1C,inactive: 0.539%,–
O=C(Nc1cccc(-c2cn3ccccc3n2)c1)c1cccc(Cl)c1,–,"inconclusive [inhibitor, single point]"
CC1=CC(c2ccccc2)n2ncnc2N1 (configuration not stated),inactive: 4.65%,–
CC(=O)N1CCCN(Cc2cn(-c3ccc(C)cc3)nc2-c2ccc(F)cc2)CC1,–,"inconclusive [inhibitor, single point]"
O=[N+]([O-])c1cc2c(cc1CN1CCN(CCOCCO)CC1)OCO2,inconclusive: -8.03% [inhibitor],–
N#CCC(=O)Nc1ncc(Cc2ccccc2Cl)s1,inactive: -10.8%,–
Cc1cccc(C)c1-n1ncc(C(=O)NC2CCCC2)c1C1CCN(C(=O)OC(C)(C)C)CC1,–,"inconclusive [inhibitor, single point]"
O=C(CN1C(=O)C2(OCCO2)c2cc(Br)ccc21)NO,inactive: 19.1%,–
COc1ccc(NC(=O)C2CCC2)cc1S(=O)(=O)N1CCOCC1,inactive: -7.34%,–
CC(=O)OCC(=O)[C@]1(O)C(OC(C)=O)CC2C3CCC4=CC(=O)C=C[C@@]4(C)[C@]3(F)C(O)C[C@]21C (some centres not stated),inactive: -3.66%,–
O=C(CCC(=O)Nc1ccc(Br)cc1)N/N=C/c1ccccc1O,–,"inconclusive [inhibitor, single point]"
O=C1c2ccccc2C(c2nnnn2-c2ccc3c(c2)OCCO3)N1Cc1cccnc1 (configuration not stated),inactive: -29.7%,–
C=CCN1C(=O)NC(c2ccccc2)(C(F)(F)F)S/C1=C(\C#N)c1nnc(N2CCOCC2)n1-c1ccccc1 (configuration not stated),–,"inconclusive [inhibitor, single point]"
O=C(Nc1ccn(CCCNCc2ccccc2)c(=O)n1)OCc1ccccc1,–,"inconclusive [inhibitor, single point]"
CCOC(=O)N1CCN(C(=O)C(CC(C)C)NS(=O)(=O)c2ccc(C)cc2)CC1 (configuration not stated),inconclusive: -31.6% [inhibitor],–
COc1cc(NC(=O)c2ccc([N+](=O)[O-])cc2)ccc1NC(=O)C(C)C,inactive: 5.98%,–
N#CC1=C(N)c2ccccc2CC12CCCCC2,–,"inconclusive [inhibitor, partial curve]"
O=C(c1cccn2c(=O)c3cc(Cl)ccc3nc12)N1CCOCC1,inactive: 3.4%,–

SMILES,"activity change, negative = growth inhibition",Potency
O=S(=O)(CC(O)COc1ccc(Br)cc1)c1ccccc1 (configuration not stated),–,"inconclusive [inhibitor, single point]"
C[C@H](CO)N1C[C@H](C)[C@@H](CN(C)S(=O)(=O)c2cn(C)cn2)Oc2c(NS(=O)(=O)c3cccs3)cccc2C1=O,inactive: -1.84%,–
Cc1nc(NCc2ccc3c(c2)OCO3)c2oc3ccccc3c2n1,inactive: -21%,–
CSc1nc(=O)[nH]c2nc[nH]c12,inactive: -1.81%,–
Nc1c(C(=O)NCC2CCCO2)c2nc3ccccc3nc2n1-c1ccccc1 (configuration not stated),–,active: 16.4 µM
Cc1cccc(C)c1NS(=O)(=O)c1ccc2c(c1)C(=O)c1ccccc1C2=O,–,"inconclusive [inhibitor, single point]"
CCOc1cc(C(=O)NCc2ccncc2)cc(OCC)c1OCC,inactive: -26.1%,–
CC1Cc2ccccc2N1C(=O)COC(=O)c1ccc(Cl)c(S(=O)(=O)N2CCOCC2)c1 (configuration not stated),–,"inconclusive [inhibitor, full curve, poor fit]"
COc1cccc(NC(=O)CN2CCN(S(=O)(=O)c3ccc(C(C)C)cc3)CC2)c1,–,"inconclusive [inhibitor, single point]"
CCC(CC)c1nnc(NC(=O)CS(=O)(=O)c2ccccc2)s1,inactive: -23.2%,–
O=C(O)c1cccc(N2C(=O)/C(=C/c3ccc([N+](=O)[O-])cc3)C=C2c2ccccc2)c1,–,"inconclusive [inhibitor, single point]"
CCN1C(=O)N(C)[C@@H](c2ccccc2)C(C(=O)OC)=C1C,inactive: 2.48%,–
Cc1c(C(=O)NCc2ccccn2)sc(=O)n1Cc1ccc(-c2ccccc2)cc1,–,"inconclusive [inhibitor, partial curve]"
FC(F)(F)c1cccc(NC(=S)NNC(=S)NCc2ccccc2)c1,–,"inconclusive [inhibitor, single point]"
CCOC(=O)c1c(C)n(CC)c2ccc(OC(=O)c3ccc([N+](=O)[O-])cc3)cc12,–,"inconclusive [inhibitor, single point]"
N#Cc1c(N)n(CCOC(=O)c2ccc(Cl)cc2)c2nc3ccccc3nc12,–,"inconclusive [inhibitor, single point]"
COC(=O)c1cccc(-n2c(C)cc(/C=C3\SC(=O)NC3=O)c2C)c1,–,"inconclusive [inhibitor, single point]"
CC(C)Oc1ccc(C(=O)NC(C)(C)CO)cc1,inactive: -10.2%,–
CCc1nc2c(OCCC3CCCCC3)cccn2c1N(C=O)Cc1ccc(OC)cc1,–,"inconclusive [inhibitor, single point]"
Cc1ccc2[nH]c3c(=O)n(CC(=O)N(CCN(C)C)Cc4ccccc4)ncc3c2c1,–,"inconclusive [inhibitor, single point]"
COC(=O)c1c(OCc2ccccn2)cc(=O)n2c1CCN(Cc1cccc(C(F)(F)F)c1)CC2,inactive: 7.08%,–
CCc1ccc(NC(=O)C(C)OC(=O)c2ccc(N3CCCC3)c([N+](=O)[O-])c2)cc1 (configuration not stated),–,"inconclusive [inhibitor, single point]"
CC(=O)N1CCC(N(Cc2ccco2)C(=O)Nc2ccc(C)c(Cl)c2)CC1,–,"inconclusive [inhibitor, single point]"
CC(C)C(=O)Nc1cc(C(F)(F)F)ccc1N1CCOCC1,inactive: -25.3%,–

SMILES,"activity change, negative = growth inhibition",Potency
C=CCNC(=S)Nc1sc2c(c1C(N)=O)CCCC2,–,"inconclusive [inhibitor, single point]"
Cc1ccc(-c2nnc(Nc3ccc4c(c3)OCO4)c3ccccc23)cc1S(N)(=O)=O,–,"inconclusive [inhibitor, single point]"
CCNC(=O)c1ccccc1NC(=O)c1cccc(S(=O)(=O)N2CCOCC2)c1,inactive: 12%,–
CC(NCc1ccc(F)cc1)C(=O)Nc1cc(S(=O)(=O)N2CCCCC2)ccc1Cl (configuration not stated),–,"inconclusive [inhibitor, partial curve, poor fit]"
O=C(NCc1cccnc1)c1cc(C2CCCCN2C(=O)c2ccc3c(c2)CCO3)on1 (configuration not stated),inconclusive: -33.8% [inhibitor],–
COC(C[C@@H](O)[C@H](C)[C@@H](O)COCc1ccccc1)OC,inactive: -9.36%,–
Cc1cc(C(=O)N/N=C/C=C/c2ccc(Br)cc2)n[nH]1,inactive: -1.04%,–
Cc1ccccc1-c1cc2nc(NCc3ccc4occc4c3)n(C)c(=O)c2s1,–,active: 18.4 µM
Cc1ccc2nc(-c3cccc(NS(C)(=O)=O)c3)cc(-c3ccccc3)c2c1,–,"inconclusive [inhibitor, single point]"
Cc1cccc(CN2CCCC(C(=O)N3CCc4ccccc4C3)C2)c1 (configuration not stated),–,"inconclusive [inhibitor, single point]"
COc1ccc(C2CC(c3ccccc3)=NN2S(=O)(=O)c2ccccc2)cc1 (configuration not stated),–,active: 7.31 µM
CCOC(=O)CNC(=O)N1[C@H](c2cccs2)[C@@H](C)C(=O)[C@@H](C)[C@@H]1c1cccs1,inconclusive: -31% [inhibitor],–
CCOc1ccc(OCC)c(NC(=O)c2ccc(CNc3c(N4CCCC4)c(=O)c3=O)cc2)c1,–,"inconclusive [inhibitor, partial curve, poor fit]"
CCOc1cc(Br)c(Br)c(C=Nc2ccc(NC(C)=O)cc2)c1O,inconclusive: -31.8% [inhibitor],–
CSCCC1NC(=O)N(CC(=O)Nc2ccc(-c3ccccc3)cc2)C1=O (configuration not stated),inactive: -2.62%,–
COC(=O)C[C@@H]1C=C[C@@H](NC(=O)NC2CCCC2)[C@@H](CO)O1,inactive: -21.3%,–
CCc1nc2ccccc2c(C(=O)OCC(=O)NCc2ccco2)c1C,–,"inconclusive [inhibitor, single point]"
COc1cc2cnc(-c3ccccc3)c(-c3ccc([N+](=O)[O-])cc3)c2cc1OC,–,"inconclusive [inhibitor, partial curve]"
COc1ccc(/C=C2\SC(=S)N(CCC(=O)N3CCCCC3CCO)C2=O)cc1 (configuration not stated),–,"inconclusive [inhibitor, single point]"
C/C(=N\NC(=O)CNc1ccccc1)c1ccccc1,inactive: 1.35%,–
Cc1ccc(-n2nnc3c(=O)n(Cc4ccccn4)cnc32)cc1C,inactive: 2.82%,–
O=C(Nc1cc(Cl)cc(Cl)c1)C(NCC1CCCO1)c1ccccc1 (configuration not stated),–,"inconclusive [inhibitor, partial curve]"
N#Cc1ccc(C(=O)Nc2cc(-c3ccccc3)nn2-c2ccccc2)cc1,–,"inconclusive [inhibitor, single point]"
Cc1ccc(Cn2nnc3c(=O)[nH]c(C4CCN(S(=O)(=O)c5ccccc5F)CC4)nc32)cc1,inactive: -3.7%,–
